This note sets out measurements from PubChem BioAssay (Tox21).

A short description of test [1]: qHTS assay for small molecules that induce genotoxicity in human embryonic kidney cells expressing luciferase-tagged ATAD5 - cell viability (AID 651634; calls by dose curve; note: nearly all actives have a fitted effect of over 25% in size). A digest of the protocol:
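HEK293T cells carrying luciferase-tagged ATAD5, 2,000 cells/well, exposed to compound for 15.5 hr at 37C. Viability read as live-cell protease activity by CellTiter-Fluor fluorescence after 30 min at 37C.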
For orientation: In qHTS, concentration-response curves come from the screen itself.

The nature of test [2]: qHTS assay to identify small molecule antagonists of the peroxisome proliferator-activated receptor gamma (PPARg) signaling pathway - cell viability counter screen (AID 743194). Note: nearly all actives have a fitted effect of over 55% in size. A digest of the protocol: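 PPARg-UAS-bla HEK293H cells were plated, rested 5 h at 37 C, then treated with compounds plus rosiglitazone (50 nM final) for 17 h at 37 C; viability was then read by CellTiter-Glo luminescence after 30 min at room temperature.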

Test [3] in a line: A CellTox Green Cytotoxicity Assay to monitor cytotoxicity in HEK293 cells - 24 hour (AID 1224875). Note: nearly all actives have a fitted effect of over 45% in size. A digest of the protocol:
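HEK293 cells, 600/well, were preincubated 5 hours and then exposed to compounds at 37 C for up to 40 hours. A cell-impermeant cyanine dye staining dead-cell DNA was read by fluorescence at 0, 8, 16, 24, 32 and 40 h time points.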

Results filed as inconclusive are left out. Unless noted, calls come from the whole dose curve; as a rule, active = well fitted curve in the direction sought with a large enough effect in the repeat runs; inconclusive = weak or mixed curves; inactive = no such curve, though single readings can be large; an effect the other way counts as inactive or inconclusive. Some structures have more than one record in an assay (separate samples or runs), and their calls can disagree. For part of its entries the source gives two or more results. They are shown here; other results are not. There may be further records. Results that share an entry repeat one measurement in other runs, samples, wells, individuals or studies. Records carry a tag for their origin. The letters are not those of the source and start again with each entry.
Potency is the fitted concentration of half-maximal effect.

As to `CCOC(=O)C(O)(c1ccc(Cl)cc1)c1ccc(Cl)cc1`, the Potency entry is “active: 24.6 µM [sample A] and inactive [sample B]” in test [1]; “active: 11.1 µM [sample A] and inactive [sample B]” in test [2]; “active: 44.1 µM [sample A] and inactive [sample B]” in test [3].
As for `CC(C)[C@@]1(NC(=O)[C@@H]2C[C@@H]3c4cccc5[nH]cc(c45)C[C@H]3N(C)C2)O[C@@]2(O)[C@@H]3CCCN3C(=O)[C@H](Cc3ccccc3)N2C1=O`, in test [1], the Potency entry was “active: 29.8 µM [sample A] and inactive [sample B]”.
